Data published in the supplement of paper PMC3334620.
Over roughly 33,000 sequences, “E-score (-0.5 to 0.5)” has its median near -0.041; the highest 2% begin near 0.37. The list shows a part of the results.

What follows are sequences tested against T1, Ecm22 (UniProt Q05958) (assay: PBM E-score (8-mer binding enrichment) (E-score (-0.5 to 0.5)); higher = stronger / more preferred TF binding; most listed sequences are background and not binding sites). Conditions: protein concentration: 200 nM; construct: GST-full length.
T1 sequence: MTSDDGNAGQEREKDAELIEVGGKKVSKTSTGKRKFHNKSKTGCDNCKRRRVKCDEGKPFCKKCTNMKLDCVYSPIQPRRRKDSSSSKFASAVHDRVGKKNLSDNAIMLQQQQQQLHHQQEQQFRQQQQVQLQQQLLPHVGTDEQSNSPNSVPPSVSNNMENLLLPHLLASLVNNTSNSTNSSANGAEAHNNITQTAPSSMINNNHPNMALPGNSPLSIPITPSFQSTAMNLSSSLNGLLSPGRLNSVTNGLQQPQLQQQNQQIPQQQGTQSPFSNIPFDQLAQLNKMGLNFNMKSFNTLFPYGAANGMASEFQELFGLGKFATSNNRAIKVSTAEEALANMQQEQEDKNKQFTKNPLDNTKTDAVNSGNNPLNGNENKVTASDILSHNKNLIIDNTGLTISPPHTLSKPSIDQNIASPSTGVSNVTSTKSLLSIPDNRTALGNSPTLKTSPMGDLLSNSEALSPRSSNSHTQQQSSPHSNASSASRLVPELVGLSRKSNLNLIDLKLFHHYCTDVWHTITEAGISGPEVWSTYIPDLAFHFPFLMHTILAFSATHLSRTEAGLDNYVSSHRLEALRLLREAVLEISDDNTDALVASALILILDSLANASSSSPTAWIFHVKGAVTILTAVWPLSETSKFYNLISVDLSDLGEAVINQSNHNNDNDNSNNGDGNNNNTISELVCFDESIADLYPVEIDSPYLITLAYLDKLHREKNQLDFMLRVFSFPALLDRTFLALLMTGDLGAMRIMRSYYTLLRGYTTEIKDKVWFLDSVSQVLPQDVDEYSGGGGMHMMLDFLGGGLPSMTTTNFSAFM
How it was run: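 For each ungapped eight-base word taken together with its reverse complement, the Universal PBM Analysis Suite assigned an E-score. Binding data came from GST-tagged yeast transcription factors, applied at about 100-200 nM, on universal all-10-mer Agilent arrays made double-stranded by primer extension. Fluorescent anti-GST marked bound protein, and scans were normalised with masliner.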

Sequence | PBM E-score
AATATGCC | -0.0852
CGAGCGGA | 0.33
CAGTAATA | 0.142
CAATGCAC | -0.087
CCACAGTA | -0.03
ACGGGCAG | 0.115
ATTTGTTA | 0.0317
GAGATTAA | 0.0376
AGAGGCTC | -0.0214
CATTAATG | 0.0748
ACCCTCTA | -0.176
CATCTTTA | 0.0521
AAAATTAT | 0.0722
AACTGCGT | 0.0886
ACATGGAT | -0.196
AACGACAC | 0.421
ATCCGGAA | 0.0357
ATAGTCCC | -0.286
CTTGTTTC | 0.0458
GATGAACA | -0.0467
ATCTTCAT | 0.109
CCTCGTGC | 0.0902
CCTCGGAA | 0.348
GCTTAGCA | -0.129
ACTCATAG | -0.141

Sequence | PBM E-score
CAAGCGAC | 0.147
ATCAGAGC | 0.0133
CTAGCCCC | -0.206
ATACGTTA | 0.276
AACGATAG | 0.345
GCACTAGA | -0.0812
AGTCCAAT | -0.245
TCAACACA | -0.0213
CTCAATAA | -0.248
GTAGTCCA | -0.226
CTCCTCAC | -0.071
TACCGTAA | 0.238
GCGCGGCA | 0.122
GCTATCGA | 0.0437
AGGGCACG | 0.0421
AAAGGGTC | -0.109
TAGGTGAA | 0.052
ATGTGTTA | 0.166
CTCCCCAG | -0.237
TCTCTTCA | -0.0952
AAAGCCTA | -0.208
AGTCTCGC | 0.185
CTAGGGCA | -0.339
AACGGCAA | 0.0983
CGCGTAAA | 0.264

Sequence | PBM E-score
GCGACCAA | 0.15
CATTCATA | -0.0427
ACCCTAAG | -0.2
ATGCATAA | -0.163
CCTGCACA | -0.294
CCCGGTAC | 0.078
CTTGGTGC | -0.16
GAATCCTA | -0.0686
ATGCATCC | -0.121
CTTCCGCA | 0.0387
CGAGTGGC | 0.212
ACATATCA | 0.0352
CTGGAAAG | -0.292
CTATGGAA | -0.102
ACCTTGGC | -0.206
CAAACATG | -0.135
CTTGGTTC | 0.131
TGCGTCCA | -0.162
AGTTCGTA | 0.449
AGCCAAAA | -0.113
ACGTCGTC | 0.175
CACAATAC | -0.0903
CCTCTCAC | -0.211
CGGCATAA | 0.09
GACTATGA | -0.0913

Sequence | PBM E-score
CCCAAGTC | -0.202
CACAGAAA | -0.00434
CTGCCTCC | -0.173
CTCAGGGC | -0.131
GAAACGCA | 0.0852
TTAACCAA | -0.142
GAATACCA | -0.0271
GTAGGAAC | 0.249
AAGCCGGG | 0.0595
TCCCTACA | -0.0238
AAAGGGGC | -0.135
CGTTGTGA | 0.0758
CCTGATCG | 0.0603
GAGCTAAA | 0.0186
TCCTGCCA | -0.367
AAATTGAT | -0.00484
ATTTGTGA | -0.0689
ATGGAAAA | -0.0284
ACCTCCAA | -0.234
ACGGGTCA | -0.0637
AATAACAC | 0.0353
GACCAAGC | -0.217
CCACCAAG | -0.266
AAACCCAG | -0.102
ACATCAAC | -0.00596

Sequence | PBM E-score
GGACAAAC | -0.0322
ATCAATGC | -0.109
AACATCCA | -0.0685
GAAAAGGA | 0.0368
ATAGCCAG | -0.174
CGACAAGC | 0.0884
CAACATCC | -0.054
CGCTGTGC | -0.0668
CCGGGAGC | 0.0914
CCAAAGTA | -0.0944
AGGCTGAG | -0.288
ACATCAAT | 0.068
CAAACCAC | -0.0543
GAAGTTAA | 0.0205
AAATACAT | -0.0825
ACAACTGC | -0.221
AGGGACCT | 0.0608
ATGATCTG | -0.111
GATTCGGC | 0.0943
ATCAAAGA | -0.261
CCCTAGAG | -0.266
GCCTATCC | -0.0429
GTAGCTCA | -0.155
TAACGACA | 0.352
AGGATGGA | 0.11

Sequence | PBM E-score
AGTACCCC | -0.0697
ATCGACAA | 0.0783
ATTGCAAT | -0.0172
ACGTTCAA | 0.188
GGATAACA | -0.195
AGCATGTC | -0.214
ATATTAGG | 0.152
CTTGGGTA | -0.0194
ATCGGCGG | -0.0755
GACTAGAA | 0.0381
CGGACCCC | 0.109
ACATCAGC | -0.217
GACTCACC | -0.155
GCCACTCA | -0.196
TATAGGAA | 0.068
CTTCGAAC | 0.164
GTATCAGA | -0.00037
GGACTGCA | -0.254
CAGTTGTC | -0.0843
AGCCTGCG | -0.17
ATGTCAAT | -0.0163
GTCCCCAC | -0.159
GAGTGGTA | -0.0513
AATCGAAC | 0.153
ACGTGCCT | -0.0501

Sequence | PBM E-score
ATTTGGGA | -0.156
AAACTAAT | 0.127
ATCTTCGG | 0.215
GTTACAAC | 0.0475
ATCCCATC | -0.153
ACCACCAC | -0.174
AGCTAAGG | -0.402
AGAAATTC | 0.049
AAATCGCA | 0.0631
GCAGATTA | -0.119
CAGTGCCG | 0.0566
AATTATTC | 0.0451
CGGGGTAG | -0.0852
CAAGGTGG | -0.131
CACAACGA | 0.255
CCTTGTGA | -0.154
CGCTGCCC | -0.162
CGGTTTCA | -0.0914
ACAATCCG | 0.149
GGTAAAAC | 0.111
GAGGCCTA | -0.0559
CTGAGCGA | 0.267
